PMC5717350, “The human CTF4-orthologue AND-1 interacts with DNA polymerase α/primase via its unique C-terminal HMG box” (Open Biology, 2017)
Where a chain is given by its changes, count along the chain named. In names and notes the source's numbering stands. No constants are given. Whether binding was seen depends on the method and setting. Some entries that bind do so weakly or less than the wild type. Where a sequence is shown, tags or fusion partners need not be part of it.

Chains of the proteins cited; added tags and fusions are not shown. Lines headed by an entry give the natural chain unless they say otherwise; changes in a name come on top.
UniProt P09884: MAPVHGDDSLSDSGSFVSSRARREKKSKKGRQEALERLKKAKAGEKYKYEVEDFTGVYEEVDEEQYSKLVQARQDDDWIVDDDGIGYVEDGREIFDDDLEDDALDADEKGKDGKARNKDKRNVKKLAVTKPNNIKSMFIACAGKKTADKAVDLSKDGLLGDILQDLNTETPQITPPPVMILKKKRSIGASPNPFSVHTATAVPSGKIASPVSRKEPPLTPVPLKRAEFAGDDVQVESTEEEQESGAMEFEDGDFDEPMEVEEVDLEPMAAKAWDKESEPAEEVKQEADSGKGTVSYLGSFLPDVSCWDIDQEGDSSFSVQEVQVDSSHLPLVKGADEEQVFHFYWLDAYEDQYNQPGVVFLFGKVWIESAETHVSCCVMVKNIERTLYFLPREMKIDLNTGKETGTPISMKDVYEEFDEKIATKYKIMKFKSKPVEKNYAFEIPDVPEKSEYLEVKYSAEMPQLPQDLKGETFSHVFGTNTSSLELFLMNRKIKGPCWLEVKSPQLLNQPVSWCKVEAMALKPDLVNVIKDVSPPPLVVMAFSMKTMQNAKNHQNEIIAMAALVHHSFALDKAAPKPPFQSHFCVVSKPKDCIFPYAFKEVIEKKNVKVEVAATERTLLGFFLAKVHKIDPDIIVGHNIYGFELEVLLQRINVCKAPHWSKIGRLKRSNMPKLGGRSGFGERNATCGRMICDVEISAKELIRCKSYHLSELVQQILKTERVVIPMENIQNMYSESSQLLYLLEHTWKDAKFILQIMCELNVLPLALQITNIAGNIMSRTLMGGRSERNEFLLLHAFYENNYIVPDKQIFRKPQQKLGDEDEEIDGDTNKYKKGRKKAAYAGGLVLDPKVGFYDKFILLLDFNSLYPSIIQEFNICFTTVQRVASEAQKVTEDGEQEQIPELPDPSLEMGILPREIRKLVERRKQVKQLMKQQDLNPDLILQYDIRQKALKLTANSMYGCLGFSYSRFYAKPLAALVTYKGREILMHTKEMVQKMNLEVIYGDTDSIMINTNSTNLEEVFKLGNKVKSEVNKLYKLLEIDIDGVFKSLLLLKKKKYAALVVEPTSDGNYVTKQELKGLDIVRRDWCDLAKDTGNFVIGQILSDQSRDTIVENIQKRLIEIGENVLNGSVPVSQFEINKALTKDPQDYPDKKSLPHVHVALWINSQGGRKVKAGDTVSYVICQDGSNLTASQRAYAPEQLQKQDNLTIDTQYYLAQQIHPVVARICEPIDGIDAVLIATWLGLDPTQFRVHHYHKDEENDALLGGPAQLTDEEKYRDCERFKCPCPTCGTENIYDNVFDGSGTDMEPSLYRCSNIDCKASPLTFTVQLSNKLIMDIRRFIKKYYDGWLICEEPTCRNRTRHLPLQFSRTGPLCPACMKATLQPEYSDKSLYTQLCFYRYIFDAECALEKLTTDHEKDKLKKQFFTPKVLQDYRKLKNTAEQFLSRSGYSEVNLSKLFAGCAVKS
UniProt P49642: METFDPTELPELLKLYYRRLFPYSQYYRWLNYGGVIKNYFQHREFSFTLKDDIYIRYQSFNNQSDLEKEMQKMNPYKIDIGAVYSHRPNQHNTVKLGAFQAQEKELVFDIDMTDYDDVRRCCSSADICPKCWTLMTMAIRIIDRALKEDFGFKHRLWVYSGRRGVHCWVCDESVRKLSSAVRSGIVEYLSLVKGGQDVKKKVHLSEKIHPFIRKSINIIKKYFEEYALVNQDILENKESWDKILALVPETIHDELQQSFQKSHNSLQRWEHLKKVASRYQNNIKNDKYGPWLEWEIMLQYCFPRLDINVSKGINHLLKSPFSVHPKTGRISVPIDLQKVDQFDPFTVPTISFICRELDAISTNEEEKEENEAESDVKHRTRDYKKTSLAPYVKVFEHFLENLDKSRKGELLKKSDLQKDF
UniProt P49643: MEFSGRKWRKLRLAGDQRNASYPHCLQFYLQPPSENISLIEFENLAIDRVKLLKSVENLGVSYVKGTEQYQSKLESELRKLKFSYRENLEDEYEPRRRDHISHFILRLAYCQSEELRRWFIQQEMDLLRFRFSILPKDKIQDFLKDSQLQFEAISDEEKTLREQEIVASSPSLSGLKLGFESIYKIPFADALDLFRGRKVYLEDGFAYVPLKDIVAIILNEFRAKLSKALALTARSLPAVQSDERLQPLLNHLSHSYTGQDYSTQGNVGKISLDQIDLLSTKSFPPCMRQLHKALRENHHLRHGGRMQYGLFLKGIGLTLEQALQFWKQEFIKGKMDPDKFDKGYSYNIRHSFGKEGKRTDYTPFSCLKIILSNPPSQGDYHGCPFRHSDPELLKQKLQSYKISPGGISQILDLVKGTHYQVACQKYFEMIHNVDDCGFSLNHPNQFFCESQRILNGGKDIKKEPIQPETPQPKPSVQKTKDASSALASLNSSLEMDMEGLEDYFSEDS

Key:
[1] = molecular target: Truncated Pol α/primase (PolαΔN-BΔN-PriS-PriL) (human) (UniProt P09884+Q14181+P49642+P49643); assay: pull-down; StrepII-tagged Pol α/primase bound to 100 µl Strep-Tactin Superflow resin, about 2.4 nmol AND-1 added as prey; PD buffer (PBS, 5% glycerol, 0.5 mM TCEP, 0.2% Igepal), 2.5 mg/ml BSA, 4°C; eluted with 10 mM desthiobiotin; Coomassie and anti-His western blot; both purified
[2] = molecular target: T1, GST-Pol α (148–171), wild type (human); assay: pull-down; GST-B fusion proteins (in figure 6a also GST-Pol α CIP, equimolar) bound to 100 µl glutathione agarose, 2.2 nmol AND-1 (1–1129, 316–1129 or 336–826) added as prey; PD buffer, 2.5 mg/ml BSA, 4°C; Coomassie, anti-His western blot in figure 6a; both purified
T1 sequence: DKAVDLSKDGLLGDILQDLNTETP

[3] = molecular target: T2, GST-Pol α (148–171) double alanine mutant I162A, L163A (AA) (human); assay: pull-down; GST-Pol α fusion proteins bound to 100 µl glutathione agarose, 20 nmol AND-1 SepB added as prey; PD buffer, 2.5 mg/ml BSA, 4°C; eluted with 20 mM reduced glutathione; Coomassie; both purified
T2 sequence: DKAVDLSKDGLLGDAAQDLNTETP

[4] = molecular target: T3, AND-1 HMG (protein used for size-exclusion chromatography) (human) (UniProt O75717); assay: SEC; 42 nmol GST-B(1–78) and 84 nmol AND-1 HMG in 250 µl on Superdex 200 10/300 GL; 25 mM HEPES pH 7.2, 100 mM KCl, 0.5 mM TCEP; fractions by SDS-PAGE; both purified
T3 sequence: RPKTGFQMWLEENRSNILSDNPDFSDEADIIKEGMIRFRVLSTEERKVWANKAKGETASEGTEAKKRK

[5] = molecular target: T4, MBP-tagged AND-1 HMG box (1017–1076) I1047E (human) (UniProt O75717); assay: pull-down; MBP-AND-1 constructs bound to 100 µl amylose resin, 25 nmol GST-B added as prey; PD buffer, 2.5 mg/ml BSA, 4°C; eluted with 20 mM maltose; Coomassie; both purified
T4 sequence: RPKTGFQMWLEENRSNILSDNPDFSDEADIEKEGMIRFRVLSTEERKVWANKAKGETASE

[6] = molecular target: T5, MBP-tagged AND-1 HMG box (1017–1076) M1051E (human) (UniProt O75717); assay: as above
T5 sequence: T4 sequence with E31I, M35E

[7] = molecular target: T6, MBP-tagged AND-1 HMG box (1017–1076), wild type (human) (UniProt O75717); assay: as above
T6 sequence: T4 sequence with E31I

B1: Full-length His10-myc-tagged AND-1 (1–1129) (natural protein, human, UniProt O75717 1-1129, looked up)
chain: MPATRKPMRYGHTEGHTEVCFDDSGSFIVTCGSDGDVRIWEDLDDDDPKFINVGEKAYSCALKSGKLVTAVSNNTIQVHTFPEGVPDGILTRFTTNANHVVFNGDGTKIAAGSSDFLVKIVDVMDSSQQKTFRGHDAPVLSLSFDPKDIFLASASCDGSVRVWQISDQTCAISWPLLQKCNDVINAKSICRLAWQPKSGKLLAIPVEKSVKLYRRESWSHQFDLSDNFISQTLNIVTWSPCGQYLAAGSINGLIIVWNVETKDCMERVKHEKGYAICGLAWHPTCGRISYTDAEGNLGLLENVCDPSGKTSSSKVSSRVEKDYNDLFDGDDMSNAGDFLNDNAVEIPSFSKGIINDDEDDEDLMMASGRPRQRSHILEDDENSVDISMLKTGSSLLKEEEEDGQEGSIHNLPLVTSQRPFYDGPMPTPRQKPFQSGSTPLHLTHRFMVWNSIGIIRCYNDEQDNAIDVEFHDTSIHHATHLSNTLNYTIADLSHEAILLACESTDELASKLHCLHFSSWDSSKEWIIDLPQNEDIEAICLGQGWAAAATSALLLRLFTIGGVQKEVFSLAGPVVSMAGHGEQLFIVYHRGTGFDGDQCLGVQLLELGKKKKQILHGDPLPLTRKSYLAWIGFSAEGTPCYVDSEGIVRMLNRGLGNTWTPICNTREHCKGKSDHYWVVGIHENPQQLRCIPCKGSRFPPTLPRPAVAILSFKLPYCQIATEKGQMEEQFWRSVIFHNHLDYLAKNGYEYEESTKNQATKEQQELLMKMLALSCKLEREFRCVELADLMTQNAVNLAIKYASRSRKLILAQKLSELAVEKAAELTATQVEEEEEEEDFRKKLNAGYSNTATEWSQPRFRNQVEEDAEDSGEADDEEKPEIHKPGQNSFSKSTNSSDVSAKSGAVTFSSQGRVNPFKVSASSKEPAMSMNSARSTNILDNMGKSSKKSTALSRTTNNEKSPIIKPLIPKPKPKQASAASYFQKRNSQTNKTEEVKEENLKNVLSETPAICPPQNTENQRPKTGFQMWLEENRSNILSDNPDFSDEADIIKEGMIRFRVLSTEERKVWANKAKGETASEGTEAKKRKRVVDESDETENQEEKAKENLNLSKKQKPLDFSTNQKLSAFAFKQE
notes: the oligomeric state was measured only on the SepB constructs; also called His-myc-AND-1; human CTF4-orthologue AND-1; source: Sf9 insect cells (baculovirus, MultiBac), purified (Ni-NTA, Q-Sepharose)
- binding [1]: no binding (tested: about 2.4 nmol AND-1 added)
- binding [2]: no binding

B2: AND-1 SepB (336–826) (domain or fragment, human, UniProt O75717 336-826, looked up)
chain: GDFLNDNAVEIPSFSKGIINDDEDDEDLMMASGRPRQRSHILEDDENSVDISMLKTGSSLLKEEEEDGQEGSIHNLPLVTSQRPFYDGPMPTPRQKPFQSGSTPLHLTHRFMVWNSIGIIRCYNDEQDNAIDVEFHDTSIHHATHLSNTLNYTIADLSHEAILLACESTDELASKLHCLHFSSWDSSKEWIIDLPQNEDIEAICLGQGWAAAATSALLLRLFTIGGVQKEVFSLAGPVVSMAGHGEQLFIVYHRGTGFDGDQCLGVQLLELGKKKKQILHGDPLPLTRKSYLAWIGFSAEGTPCYVDSEGIVRMLNRGLGNTWTPICNTREHCKGKSDHYWVVGIHENPQQLRCIPCKGSRFPPTLPRPAVAILSFKLPYCQIATEKGQMEEQFWRSVIFHNHLDYLAKNGYEYEESTKNQATKEQQELLMKMLALSCKLEREFRCVELADLMTQNAVNLAIKYASRSRKLILAQKLSELAVEKAAELTAT
notes: source: E. coli Rosetta2(DE3), purified (Ni-NTA, Q-Sepharose, TEV cleavage, Superdex 200)
- binding [3]: no binding (tested: 20 nmol AND-1 SepB added)

B3: GST-BNTD (B subunit amino acids 1–78) (domain or fragment, human, UniProt Q14181 1-78, looked up)
chain: MSASAQQLAEELQIFGLDCEEALIEKLVELCVQYGQNEEGMVGELIAFCTSTHKVGLTSEILNSFEHEFLSKRLSKAR
notes: human DNA polymerase α B subunit, residues 1-78 (four-helix bundle N-terminal domain); also called GST-B(1–78); B N-terminal domain; source: E. coli Rosetta2(DE3), purified (Ni-NTA agarose)
- binding [4]: binds
- binding [5]: no binding (tested: 25 nmol GST-B added)
- binding [6]: no binding (tested: 25 nmol GST-B added)

B4: GST-BNTD (1–78) I14A (domain or fragment, UniProt Q14181 1-78)
chain: B3 chain with I14A
- binding [7]: no binding (tested: 25 nmol GST-B added)

B5: GST-BNTD (1–78) I46A (domain or fragment, UniProt Q14181 1-78)
chain: B3 chain with I46A
- binding [7]: no binding (tested: 25 nmol GST-B added)

B6: GST-BNTD (1–78) F15A (domain or fragment, UniProt Q14181 1-78)
chain: B3 chain with F15A
- binding [7]: no binding (tested: 25 nmol GST-B added)
